# Measurements from a collection of fitness landscapes (doi:10.1016/j.celrep.2020.107928).
# Over roughly 81,000 sequences, “one-hybrid fitness for binding NBS DNA” has its median near -0.1; the highest 2% begin near 0.36. Some of the results follow.
# B1: Caulobacter ParB omega fusion; a variant is named by its letters at X, in order, B8GW30 (parent)
# chain: MESVVVGEPGMSEGRRGLGRGLSALLGEVDAAPAQAPGEQLGGSREAPIEILQRNPDQPRRTFREEDLEDLSNSIREKGVLQPILVRPSPDTAGEYQIVAGERAWRAAQRAGLKTVPIMVRELDDLAVLEIGIIENVQRADLNVLEEALSYKVLMEKFERTQENIAQTIGKSXSHVANXMRLLXLPDEVQSYLVSGELTAXHARAIAAAADPVALAKQIIEGGLSVRETEALARKAPNLSAGKSKGGRPPRVKDTDTQALESDLSSVLGLDVSIDHRGSTGTLTITYATLEQLDDLCNRLTRGI
# Variants of: B1
# Experiment: one-hybrid fitness for binding NBS DNA (the Noc-binding site; scaled: cognate 1, non-cognate 0); higher = stronger binding
# Conditions: with NBS DNA site
# Procedure, shortened: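 Pre- and post-selection plasmids were Illumina-sequenced, three replicate libraries were pooled, and any variant with under 10 reads was removed. The libraries were Caulobacter ParB with four specificity codons randomised, selected in E. coli USO through a HIS3 reporter whose site is 19 bp from the promoter. Cells grew 48 hours at 37°C on M9 without histidine, with 0.1 mM IPTG and 5 mM 3-AT. Fitness is the log change in variant-to-wild-type read ratio, rescaled against cognate and non-cognate.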
row,Variant,one-hybrid fitness for binding NBS DNA
1,RWGI,≤ 0.2
2,GQPM,≤ 0.2
3,WAFR,≤ 0.2
4,PTKA,≤ 0.2
5,RLPT,≤ 0.2
6,DGYT,≤ 0.2
7,PLQI,≤ 0.2
8,SAFH,≤ 0.2
9,TKDN,≤ 0.2
10,DLKR,≤ 0.2
11,RIMM,≤ 0.2
12,MVNS,≤ 0.2
13,SNPF,≤ 0.2
14,IRCS,≤ 0.2
15,PVNG,≤ 0.2
16,QHDY,≤ 0.2
17,KPTT,≤ 0.2
18,KCSR,≤ 0.2
19,QGEG,≤ 0.2
20,VIHG,≤ 0.2
21,SIGV,≤ 0.2
22,TATE,≤ 0.2
23,ARAK,≤ 0.2
24,MAVT,≤ 0.2
25,KWHL,≤ 0.2
26,RGQT,≤ 0.2

row,Variant,one-hybrid fitness for binding NBS DNA
1,QVMD,≤ 0.2
2,NWPE,≤ 0.2
3,HTTR,≤ 0.2
4,PSAA,≤ 0.2
5,ACLT,≤ 0.2
6,EATA,≤ 0.2
7,SITY,≤ 0.2
8,IHGP,≤ 0.2
9,EGKQ,≤ 0.2
10,NATW,≤ 0.2
11,MLDV,≤ 0.2
12,MAKN,≤ 0.2
13,MWKC,≤ 0.2
14,EVEG,≤ 0.2
15,APQM,≤ 0.2
16,PKLY,≤ 0.2
17,RIKC,0.284
18,YFHS,≤ 0.2
19,ATFG,≤ 0.2
20,IHRS,≤ 0.2
21,LKHK,≤ 0.2
22,WSYA,≤ 0.2
23,RVRR,0.626
24,RQCE,≤ 0.2
25,QTWI,≤ 0.2
26,PRWR,≤ 0.2

row,Variant,one-hybrid fitness for binding NBS DNA
1,VLIC,≤ 0.2
2,HGKF,≤ 0.2
3,FHCT,≤ 0.2
4,EDQG,≤ 0.2
5,SSAW,≤ 0.2
6,WYCV,0.366
7,KSVT,≤ 0.2
8,AFEG,≤ 0.2
9,GHTV,≤ 0.2
10,GQVR,≤ 0.2
11,WHCG,≤ 0.2
12,YPPT,≤ 0.2
13,GNER,≤ 0.2
14,FARR,≤ 0.2
15,ANWG,≤ 0.2
16,IPSY,≤ 0.2
17,AVCV,≤ 0.2
18,HVET,≤ 0.2
19,GCSE,≤ 0.2
20,TLIK,≤ 0.2
21,LKDC,≤ 0.2
22,DIDS,≤ 0.2
23,LNSR,≤ 0.2
24,WTGT,≤ 0.2
25,QYHG,≤ 0.2
26,LAPE,≤ 0.2

row,Variant,one-hybrid fitness for binding NBS DNA
1,REGR,≤ 0.2
2,AILK,≤ 0.2
3,RVNY,≤ 0.2
4,CHLY,0.222
5,NWSG,≤ 0.2
6,GDPD,≤ 0.2
7,MRQR,≤ 0.2
8,RYEQ,≤ 0.2
9,FQPL,≤ 0.2
10,HQNV,≤ 0.2
11,MPPA,≤ 0.2
12,GTPV,≤ 0.2
13,AWGG,≤ 0.2
14,PPFS,≤ 0.2
15,TTHW,≤ 0.2
16,FTVG,≤ 0.2
17,LHPT,≤ 0.2
18,MSDQ,≤ 0.2
19,RPAQ,≤ 0.2
20,SYPS,≤ 0.2
21,LGNY,≤ 0.2
22,VTHS,≤ 0.2
23,CRKS,≤ 0.2
24,DATD,≤ 0.2
25,KRQV,≤ 0.2
26,PKKA,≤ 0.2

row,Variant,one-hybrid fitness for binding NBS DNA
1,CMFG,≤ 0.2
2,GPPP,≤ 0.2
3,DWKS,≤ 0.2
4,HGWD,≤ 0.2
5,NTRS,≤ 0.2
6,DSTI,≤ 0.2
7,YAME,≤ 0.2
8,STSY,≤ 0.2
9,DCKY,≤ 0.2
10,TVFY,≤ 0.2
11,MKYY,≤ 0.2
12,YAPG,≤ 0.2
13,AVPV,≤ 0.2
14,ETIY,≤ 0.2
15,DMHV,≤ 0.2
16,HFAT,≤ 0.2
17,AQTD,≤ 0.2
18,LNPE,≤ 0.2
19,ACDS,≤ 0.2
20,SESH,≤ 0.2
21,CMLG,≤ 0.2
22,QFCG,≤ 0.2
23,SGSI,≤ 0.2
24,YADG,≤ 0.2
25,RSKQ,≤ 0.2
26,QRNT,0.822

row,Variant,one-hybrid fitness for binding NBS DNA
1,TDEG,≤ 0.2
2,TALI,≤ 0.2
3,TKRD,≤ 0.2
4,QWLM,≤ 0.2
5,HKMS,≤ 0.2
6,NNRL,≤ 0.2
7,VTQD,≤ 0.2
8,MAKS,≤ 0.2
9,PQAY,≤ 0.2
10,LVKL,≤ 0.2
11,PNYP,≤ 0.2
12,HINT,≤ 0.2
13,SNMV,≤ 0.2
14,SKMD,≤ 0.2
15,CDCF,≤ 0.2
16,TVYA,≤ 0.2
17,ILMC,≤ 0.2
18,YRQH,≤ 0.2
19,LQEA,≤ 0.2
20,GTCL,≤ 0.2
21,EVIT,≤ 0.2
22,TSTS,≤ 0.2
23,MFSR,≤ 0.2
